Results as given in PubChem BioAssay AID485294 (National Center for Advancing Translational Sciences (NCATS), 2010).
The whole screen tested about 370,000 compounds, of which about 150 (0.041%) were called active. This list was built around the results that the source calls inconclusive (neither active nor inactive); the mix of calls is not that of the screen. Calls come from the whole dose curve; as a rule, active = well fitted inhibition curve with a large enough effect; inconclusive = small, poorly fitted or top-dose-only effect; inactive = flat fitted curve, though single readings scatter. Potencies of inconclusive entries are left out as doubtful fits.

The molecules below were run against Beta-lactamase (Escherichia coli (strain K12)) (UniProt P00811) (assay: qHTS Inhibitors of AmpC Beta-Lactamase (assay with detergent)). Settings: AmpC hydrolysis of nitrocefin, absorbance 480 nm, 0.01% Triton; activity change, negative = inhibition: at 114 µM (top of the series).
UniProt P00811, sequence (P00811 whole entry, looked up): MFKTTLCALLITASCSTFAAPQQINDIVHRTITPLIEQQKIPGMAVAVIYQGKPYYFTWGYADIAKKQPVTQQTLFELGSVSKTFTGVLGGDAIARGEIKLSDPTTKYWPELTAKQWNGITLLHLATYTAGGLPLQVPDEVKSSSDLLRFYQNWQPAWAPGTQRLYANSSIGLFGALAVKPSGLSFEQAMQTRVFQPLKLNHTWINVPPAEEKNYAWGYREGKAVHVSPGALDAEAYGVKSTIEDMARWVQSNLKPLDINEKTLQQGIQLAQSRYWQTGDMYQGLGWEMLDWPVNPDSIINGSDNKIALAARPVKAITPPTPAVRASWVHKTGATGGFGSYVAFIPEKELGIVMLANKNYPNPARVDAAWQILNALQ
Method in brief: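 AmpC (5.3 nM in the dispensed reagent) in 20 mM phosphate pH 7.0 with 0.01% (detergent screen) or 0.0001% Triton X-100 was preincubated with compounds for 15 min at room temperature. Nitrocefin was then added from an 800 uM solution, and hydrolysis was followed at 480 nm.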
Note: nearly all actives have a fitted effect of over 25% in size.
Potency is the fitted concentration of half-maximal effect; tags give direction and shape of the fitted curve.
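Throughout, for activity change, negative = inhibition: 0% = no-compound wells and -100% = no-enzyme wells.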

Row | Compound | Potency | activity change, negative = inhibition
1 | O=C(NC1CCCCC1)N(CCO)Cc1cc2cc3c(cc2[nH]c1=O)OCCO3 | inconclusive [inhibitor, single point] | 
2 | COc1ccc(/C=C/C(=O)NC(=S)N2CCCCC2)cc1OC |  | inactive: -9.61%
3 | C#CCOCCOCCOCCNc1nc(N2CCN(C(=O)Cn3cc(CCCN=C(N)N)nn3)CC2)nc(N2CCN(C(=O)[C@H](C)n3cc(CCCN=C(N)N)nn3)CC2)n1 | inconclusive [inhibitor, partial curve, poor fit] | 
4 | COc1cccc(NC2=NCC(=O)N2Cc2cccs2)c1 | inconclusive [inhibitor, full curve] | 
5 | Cc1cccc(N2CC(C(=O)Nc3nnc(SCC(=O)Nc4cc(C)on4)s3)CC2=O)c1 (stereo not given) | inconclusive [inhibitor, full curve, poor fit] | 
6 | Cc1cc2c(NC3CCCCC3)ncnc2s1 | inconclusive [inhibitor, full curve, poor fit] | 
7 | CCc1cccc(NC(=O)c2cc3c(=O)n(Cc4ccc(OC)cc4)ccc3nc2C)c1 |  | inactive: -3.06%
8 | CCOC(=O)c1c(NC(=O)c2cc3nc(-c4ccc(OC)cc4)cc(C(F)(F)F)n3n2)sc2c1CCC(C)C2 (stereo not given) |  | inactive: 3.91%
9 | COC(=O)[C@@]1(Cc2ccc(F)cc2)[C@H]2c3cc(C(=O)N(C)C)n(Cc4ccccc4)c3C[C@H]2CN1C(=O)c1ccccc1 | inconclusive [inhibitor, partial curve, poor fit] | 
10 | Cc1ccc(C)c(OCCC(=O)OCc2csc(CC(=O)Nc3ccccc3C)n2)c1 | inconclusive [inhibitor, full curve, poor fit] | 
11 | O=S(=O)(NC1CCCCC1)c1cccc(-c2nnc(-c3ccccc3)o2)c1 | inconclusive [inhibitor, full curve, poor fit] | 
12 | CCc1nc2oc3ccccc3c(=O)c2c(=O)n1-c1ccccc1 |  | inactive: -2.54%
13 | CC[C@@H](C)[C@H](NC(=O)OC(C)(C)C)c1nnc(S(=O)(=O)Cc2cc(C)ccc2C)o1 | active: 11.2 µM | 
14 | FC(F)(F)c1cccc(Cc2noc(CN3CCCC(OCc4ccccn4)C3)n2)c1 (stereo not given) |  | inactive: 6.99%
15 | CCC(=O)NCCc1nc2ccccc2n1Cc1ccc(C)cc1 | inconclusive [inhibitor, single point] | 
16 | Cc1ccc(SCCN2CCN(CCc3ccccc3)CCC2=O)cc1 |  | inactive: 0.181%
17 | CN(C)C(=O)CNC(=O)C1CCCCC1 | inconclusive [inhibitor, full curve, poor fit] | 
18 | CN(C)CCCN(C(=O)COc1ccccc1)c1nc2c(F)cccc2s1 | inconclusive [inhibitor, partial curve] | 
19 | Fc1cccc(C2NN=C(c3ccccc3)S2)c1 (stereo not given) | inconclusive [inhibitor, full curve, poor fit] | 
20 | CC(C)(C)c1ccc(OCCCN2CCCC2)cc1 | inconclusive [inhibitor, full curve] | 

Row | Compound | Potency | activity change, negative = inhibition
21 | C/C(=C\C(=O)C(F)(F)F)Nc1ccc(C)cc1 | inconclusive [inhibitor, partial curve] | 
22 | CCn1c2ccccc2c2cc(/C=N/n3cnnc3)ccc21 | inconclusive [inhibitor, full curve, poor fit] | 
23 | O=C(OCCOc1cccc(Cl)c1)c1cc(S(=O)(=O)N2CCCCC2)ccc1N1CCOCC1 | inconclusive [inhibitor, full curve, poor fit] | 
24 | Cc1cc(C)cc(NCc2ccncc2)c1 |  | inactive: -2.72%
25 | O=C(Nc1ccc(OC(=O)c2ccccc2)c(-c2nc3ccccc3s2)c1)c1ccccc1 | inconclusive [inhibitor, full curve, poor fit] | 
26 | Cc1nc(C)c(C(=O)OCC(=O)N2CCN(c3ccccc3)CC2)s1 | inconclusive [inhibitor, single point] | 
27 | COc1ccc(CN2CCCC(C(=O)c3cccc(Cl)c3)C2)cc1 (stereo not given) | inconclusive [inhibitor, full curve, poor fit] | 
28 | CC1CC(C)CN(CCC(=O)Nc2cccc(Cl)c2)C1 (stereo not given) | inconclusive [inhibitor, full curve, poor fit] | 
29 | NC(=O)c1ccc(NC(=O)CSc2nncn2-c2ccccc2)cc1 | inconclusive [inhibitor, full curve, poor fit] | 
30 | CCC(=O)c1ccc(OCC(=O)NCC2COc3ccccc3O2)cc1 (stereo not given) | inconclusive [inhibitor, partial curve] | 
31 | CCCc1ccc2oc(C(=O)N3CCC[C@H]3CO)c(C)c2c1 | inconclusive [inhibitor, full curve, poor fit] | 
32 | O=C(CN1C(=O)CCOc2ccccc21)Nc1cccc(S(=O)(=O)N2CCOCC2)c1 | inconclusive [inhibitor, full curve, poor fit] | 
33 | O=C(CSC1=Nc2ccccc2C2=NC(c3ccccc3)C(=O)N12)NC1CCCCC1 (stereo not given) | inconclusive [inhibitor, full curve, poor fit] | 
34 | COc1ccccc1NC(=O)c1sc2nc(N3CCOCC3)c3c(c2c1N)CC(C)(C)OC3 |  | inactive: 19.8%
35 | O=c1cc(N2CCOCC2)[nH]c(=O)n1-c1ccc(Br)cc1 | inconclusive [inhibitor, full curve, poor fit] | 
36 | CCN(CC)S(=O)(=O)c1ccc2c(c1)nc(CCC(=O)OCc1c(C)noc1C)n2C | inconclusive [inhibitor, partial curve, poor fit] | 
37 | O=C(COC(=O)CNC(=O)c1ccc(Cl)cc1)Nc1ncc(C(F)(F)F)cc1Cl | inconclusive [inhibitor, full curve] | 
38 | COc1cc(OC)cc(C(=O)OCC(=O)NCc2ccc3c(c2)OCO3)c1 | inconclusive [inhibitor, single point] | 
39 | O=C(Nc1ccccc1C(=O)N/N=C/c1ccco1)c1ccccc1Cl | inconclusive [inhibitor, partial curve] | 
40 | Nc1cc(C(F)(F)F)ccc1OCC1CCCO1 (stereo not given) | inconclusive [inhibitor, full curve, poor fit] | 
